# Source: patent publication US7592316B2, “Peptides as NS3-serine protease inhibitors of hepatitis C virus” (Schering Corporation, priority 2000, dated 2009)
# Target: HCV NS3/NS4A protease (strain 1a) (Hepatitis C virus genotype 1a, UniProt P27958)
# Test: biochemical
# Conditions: Table 5; HCV NS3/NS4A protease, 30° C., pH 6.5; read-out: Ki* Range
row,Structure (SMILES),Ki [nM]
1,C=CCCC(NC(=O)[C@@H]1[C@@H]2[C@H](CN1C(=O)[C@@H](NC(=O)NC13CC4CC(CC(C4)C1)C3)C1CCCCC1)C2(C)C)C(=O)C(=O)NC/C=C/COCc1ccccc1 (stereo partly drawn),> 1000
2,C=CCNC(=O)C(=O)C(CCC)NC(=O)[C@@H]1CC[C@H](C)N1C(=O)[C@@H](NC(=O)OC(C)(C)C)C1CCCCC1 (stereo partly drawn),> 1000
3,C=CCNC(=O)C(=O)C(CCC)NC(=O)[C@@H]1CC[C@H](C)N1C(=O)[C@@H](NC(=O)OCC1CC1)C1CCCCC1 (stereo partly drawn),> 1000
4,C=CCNC(=O)C(=O)C(CCC)NC(=O)[C@@H]1C[C@@H](OCc2cccc3ccccc23)CN1C(=O)[C@@H](NC(=O)OC(C)(C)C)C1CCCCC1 (stereo partly drawn),> 1000
5,C=CCNC(=O)C(=O)C(COC)NC(=O)[C@@H]1[C@@H]2[C@H](CN1C(=O)[C@@H](NC(=O)OC(C)(C)C)C1CCCCC1)C2(C)C (stereo partly drawn),101 to 1000
6,C=CCNC(=O)C(=O)C(CCC)NC(=O)[C@@H]1CC(OS(=O)(=O)c2ccc(CN)cc2)CN1C(=O)[C@@H](NC(=O)NC(C)(C)C)C1CCCCC1 (stereo partly drawn),> 1000
7,CCCC(NC(=O)[C@@H]1[C@H]2[C@@H](CN1C(=O)C(NC(=O)OC(C)(C)C)C1CCCCC1)C2(C)C)C(=O)C(=O)NCCNC(=O)c1ccccc1 (stereo partly drawn),101 to 1000
8,CCCC(NC(=O)[C@@H]1[C@H]2[C@@H](CN1C(=O)C(NC(=O)OC(C)(C)C)C1CCCCC1)C2(C)C)C(=O)C(=O)NCC(=O)NC1CCCCC1 (stereo partly drawn),101 to 1000
9,C=CCNC(=O)C(=O)C(CCC)NC(=O)[C@@H]1[C@H]2[C@@H](CN1C(=O)[C@@H](NC(=O)OC(C)(C)C)C1CC3CCCCC3C1)C2(C)C (stereo partly drawn),101 to 1000
10,C=CCNC(=O)C(=O)C(CCC)NC(=O)[C@@H]1[C@H]2[C@@H](CN1C(=O)[C@@H](NC(=O)OC13CCCC(CC4CC41)C3)C1Cc3ccccc3C1)C2(C)C (stereo partly drawn),101 to 1000
11,CCCC(NC(=O)[C@@H]1C[C@@H](OC(C)(C)C)CN1C(=O)[C@@H](NC(=O)OC(C)(C)C)C1CCCCC1)C(=O)C(=O)NCCC(=O)OC(C)(C)C (stereo partly drawn),> 1000
12,CCCC(NC(=O)[C@@H]1C[C@@H](OC(C)(C)C)CN1C(=O)[C@@H](NC(=O)OC(C)(C)C)C(C)(C)C)C(=O)C(=O)NCCC(=O)OC(C)(C)C (stereo partly drawn),> 1000
13,CC(C)(C)OC(=O)CCNC(=O)C(=O)C(CC(F)(F)F)NC(=O)[C@@H]1[C@@H]2[C@H](CN1C(=O)[C@@H](NC(=O)OC(C)(C)C)C1CCCCC1)C2(C)C (stereo partly drawn),101 to 1000
14,C=CCCNC(=O)C(=O)C(CCC=C)NC(=O)[C@@H]1[C@H]2[C@@H](CN1C(=O)[C@@H](N)C(C)(C)C)C2(Cl)Cl (stereo partly drawn),> 1000
15,C=CCCC(NC(=O)[C@@H]1[C@@H]2[C@H](CN1C(=O)[C@@H](NC(=O)NC13CC4CC(CC(C4)C1)C3)C1CCCCC1)C2(C)C)C(=O)C(=O)NCCC(=O)OC12CC3CC(CC(C3)C1)C2 (stereo partly drawn),> 1000
16,C=CCCC(NC(=O)[C@@H]1[C@@H]2[C@H](CN1C(=O)[C@@H](NC(=O)NC13CC4CC(CC(C4)C1)C3)C1CCCCC1)C2(C)C)C(=O)C(=O)NCCC(=O)OC(CC)(CC)CC (stereo partly drawn),101 to 1000
17,C=CCCNC(=O)C(=O)C(CCC=C)NC(=O)C(CCC(C)C)NC(=O)OCC1c2ccccc2-c2ccccc21 (stereo not drawn),> 1000
18,COCC(NC(=O)[C@@H]1[C@@H]2[C@H](CN1C(=O)[C@@H](NC(=O)OC(C)(C)C)C(C)(C)C)C2(C)C)C(=O)C(=O)NCCC(=O)OC(C)(C)C (stereo partly drawn),101 to 1000
19,COCC(NC(=O)[C@@H]1[C@@H]2[C@H](CN1C(=O)[C@@H](NC(=O)OC(C)(C)C)C1Cc3ccccc3C1)C2(C)C)C(=O)C(=O)NCCC(=O)OC(C)(C)C (stereo partly drawn),101 to 1000
20,C=CCNC(=O)C(=O)C(CCC)NC(=O)[C@@H]1[C@H]2[C@@H](CN1C(=O)C(NC(=O)OCCOc1ccccc1)C1CCCCC1)C2(C)C (stereo partly drawn),101 to 1000
21,C=CCCNC(=O)C(=O)C(CCC=C)NC(=O)[C@@H]1[C@H]2[C@@H](CN1C(=O)C(NC(=O)NC1CCCCC1)C(C)(C)C)C2(Cl)Cl (stereo partly drawn),101 to 1000
22,C=CCCC(NC(=O)[C@@H]1[C@@H]2[C@H](CN1C(=O)[C@@H](NC(=O)OC(C)(C)C)C1CCCCC1)C2(C)C)C(=O)C(=O)NCCC(=O)OC(C)(C)Cc1ccccc1 (stereo partly drawn),101 to 1000
23,C=CCNC(=O)C(=O)C(CCC)NC(=O)[C@@H]1C2CC(C)(C)CC2CN1C(=O)[C@@H](NC(=O)OC(C)(C)C)C1CCCCC1 (stereo partly drawn),> 1000
24,CC(C)(C)OC(=O)CCNC(=O)C(=O)C(CCC1CO1)NC(=O)[C@@H]1[C@@H]2[C@H](CN1C(=O)[C@@H](NC(=O)NC13CC4CC(CC(C4)C1)C3)C1CCCCC1)C2(C)C (stereo partly drawn),101 to 1000
25,C=CCCNC(=O)C(=O)C(CCC=C)NC(=O)[C@H](CCC(C)C)NC(=O)[C@@H](NC(=O)OC(C)(C)C)C1CCCCC1 (stereo partly drawn),> 1000
26,CNC(=O)C(=O)C(CC1CC1)NC(=O)[C@@H]1[C@@H]2[C@H](CN1C(=O)[C@@H](NC(=O)NC(C)(C)C)C1CCCCC1)C2(C)C (stereo partly drawn),101 to 1000
27,CNC(=O)C(=O)C(CC1CC1)NC(=O)[C@@H]1[C@@H]2[C@H](CN1C(=O)[C@@H](NC(=O)NC(C)(C)C)C(C)(C)C)C2(C)C (stereo partly drawn),101 to 1000
28,CNC(=O)C(=O)C(CC1CC1)NC(=O)[C@@H]1[C@@H]2[C@H](CN1C(=O)[C@@H](NC(=O)NC1CCCCC1)C(C)(C)C)C2(C)C (stereo partly drawn),101 to 1000

# Continued, values first:
row,Ki [nM],Structure (SMILES)
1,1 to 100,COCC(NC(=O)[C@@H]1[C@@H]2[C@H](CN1C(=O)[C@@H](NC(=O)OC(C)(C)C)C1CCCCC1)C2(C)C)C(=O)C(=O)NCCC(=O)OC(C)(C)C (stereo partly drawn)
2,1 to 100,C=CCCC(NC(=O)[C@@H]1[C@@H]2[C@H](CN1C(=O)[C@@H](NC(=O)NC(C)(C)C)C(C)(C)C)C2(C)C)C(=O)C(=O)NCCC(=O)OC(C)(C)C (stereo partly drawn)
3,1 to 100,C=CCCC(NC(=O)[C@@H]1[C@@H]2[C@H](CN1C(=O)[C@@H](NC(=O)NC13CC4CC(CC(C4)C1)C3)C1CCCCC1)C2(C)C)C(=O)C(=O)NCC(=O)NCc1ccccc1 (stereo partly drawn)
4,1 to 100,C#CCCNC(=O)C(=O)C(CCC=C)NC(=O)[C@@H]1[C@@H]2[C@H](CN1C(=O)[C@@H](NC(=O)NC13CC4CC(CC(C4)C1)C3)C1CCCCC1)C2(C)C (stereo partly drawn)
5,1 to 100,C=CCCC(NC(=O)[C@@H]1[C@@H]2[C@H](CN1C(=O)[C@@H](NC(=O)OC(C)(C)C)C1CCCCC1)C2(C)C)C(=O)C(=O)NCCC(=O)NC(C)(C)C (stereo partly drawn)
6,1 to 100,CCCC(NC(=O)[C@@H]1[C@H]2[C@@H](CN1C(=O)C(NC(=O)OC(C)(C)C)C1CCCCC1)C2(C)C)C(=O)C(=O)NCC(=O)NC1CC1 (stereo partly drawn)
7,1 to 100,C=CCCNC(=O)C(=O)C(CCC=C)NC(=O)[C@@H]1[C@@H]2[C@H](CN1C(=O)C(NC(=O)OC(C)(C)C)C1Cc3ccccc3C1)C2(Cl)Cl (stereo partly drawn)
8,1 to 100,C=CCCC(NC(=O)[C@@H]1[C@@H]2[C@H](CN1C(=O)[C@@H](NC(=O)OC(C)(C)C)C1CCCCC1)C2(C)C)C(=O)C(=O)NCCS(=O)(=O)C(C)(C)C (stereo partly drawn)
9,1 to 100,C=CCCC(NC(=O)[C@@H]1[C@@H]2[C@H](CN1C(=O)[C@@H](NC(=O)NC(C)(C)C)C1CCCCC1)C2(C)C)C(=O)C(=O)NCCC(=O)OC(C)(C)C (stereo partly drawn)
10,1 to 100,C=CCCC(NC(=O)[C@@H]1[C@@H]2[C@H](CN1C(=O)[C@@H](NC(=O)NC13CC4CC(CC(C4)C1)C3)C1CCCCC1)C2(C)C)C(=O)C(=O)NCCC(=O)OC1(C)CCCC1 (stereo partly drawn)
11,1 to 100,C=CCNC(=O)C(=O)C(CCC)NC(=O)[C@@H]1[C@H]2[C@@H](CN1C(=O)C(NC(=O)OC1CCC(C)C1)C1CCCCC1)C2(C)C (stereo partly drawn)
12,1 to 100,C=CCNC(=O)C(=O)C(CCC)NC(=O)[C@@H]1[C@H]2[C@@H](CN1C(=O)C(NC(=O)OC1CC(C)CC1C)C1CCCCC1)C2(C)C (stereo partly drawn)
13,1 to 100,C=CCCNC(=O)C(=O)C(CCC=C)NC(=O)[C@@H]1[C@H]2[C@@H](CN1C(=O)C(NC(=O)NC(C)(C)C)C(C)(C)C)C2(Cl)Cl (stereo partly drawn)
14,1 to 100,C=CCCNC(=O)C(=O)C(CCC=C)NC(=O)[C@@H]1[C@H]2[C@@H](CN1C(=O)C(NC(=O)NC13CC4CC(CC(C4)C1)C3)C(C)(C)C)C2(Cl)Cl (stereo partly drawn)
15,1 to 100,C=CCCNC(=O)C(=O)C(CCC=C)NC(=O)[C@@H]1[C@H]2[C@@H](CN1C(=O)C(NC(=O)OC(C)(C)C)C1CCCCC1)C2(Cl)Cl (stereo partly drawn)
16,1 to 100,C=CCNC(=O)C(=O)C(CCC)NC(=O)[C@@H]1[C@H]2[C@@H](CN1C(=O)C(NC(=O)OC1CCCC1C1CCCC1)C1CCCCC1)C2(C)C (stereo partly drawn)
17,1 to 100,C=CCCC(NC(=O)[C@@H]1[C@@H]2[C@H](CN1C(=O)[C@@H](NC(=O)OC(C)(C)C)C1CCCCC1)C2(C)C)C(=O)C(=O)NCCC(=O)OC1(C)CC1 (stereo partly drawn)
18,1 to 100,C=CCCC(NC(=O)[C@@H]1[C@@H]2[C@H](CN1C(=O)[C@@H](NC(=O)OC(C)(C)C)C1CCCCC1)C2(C)C)C(=O)C(=O)NCCC(=O)N(C)C(C)(C)C (stereo partly drawn)
19,1 to 100,C=CCCNC(=O)C(=O)C(CCC=C)NC(=O)[C@@H]1[C@H]2[C@@H](CN1C(=O)C(NC(=O)NC(C)(C)C)C1CCCCC1)C2(Cl)Cl (stereo partly drawn)
20,1 to 100,C=CCCNC(=O)C(=O)C(CCC=C)NC(=O)[C@@H]1[C@H]2[C@@H](CN1C(=O)C(NC(=O)NC1CC3CCC1C3)C1CCCCC1)C2(Cl)Cl (stereo partly drawn)
21,1 to 100,C=CCCNC(=O)C(=O)C(CCC=C)NC(=O)[C@@H]1[C@H]2[C@@H](CN1C(=O)C(NC(=O)OC(C)C)C1CCCCC1)C2(Cl)Cl (stereo partly drawn)
22,1 to 100,C=CCCC(NC(=O)[C@@H]1[C@@H]2[C@H](CN1C(=O)[C@@H](NC(=O)OC(C)(C)C)C1CCCCC1)C2(C)C)C(=O)C(=O)NCCC(=O)N1CC1 (stereo partly drawn)
23,1 to 100,C=CCCC(NC(=O)[C@@H]1[C@@H]2[C@H](CN1C(=O)[C@@H](NC(=O)NC(C)(C)C)C(C)(C)C)C2(C)C)C(=O)C(=O)NCCC(=O)OC1(C)CCCC1 (stereo partly drawn)
24,1 to 100,C=CCCC(NC(=O)[C@@H]1[C@@H]2[C@H](CN1C(=O)[C@@H](NC(=O)OC(C)(C)C)C1CCCCC1)C2(C)C)C(=O)C(=O)NCCC(=O)NCc1ccccc1 (stereo partly drawn)
25,1 to 100,CCCC(NC(=O)[C@@H]1[C@@H]2[C@@H](CN1C(=O)[C@@H](NC(=O)OC(C)(C)C)C1Cc3ccccc3C1)C2(C)C)C(=O)C(=O)NCC(=O)NCc1ccccc1 (stereo partly drawn)
26,1 to 100,C=CCCC(NC(=O)[C@@H]1[C@H]2[C@@H](CN1C(=O)[C@@H](NC(=O)OC(C)(C)C)C1CCCCC1)C2(Cl)Cl)C(=O)C(=O)NCCC(=O)NC(C)(C)C (stereo partly drawn)
